Assay results as given in patent US10124065B2, “Lipids and lipid compositions for the delivery of active agents” (Novartis AG, priority 2013, dated 2018).
At least one compound was matched to its structure with a doubt left.

Columns and labels:
[1] = Particle size of lipid nanoparticle (dynamic light scattering, Malvern Zetasizer); assay type: physicochemical
Description: The lipid nanoparticles have a size of about 1 to about 2,500 nm, about 1 to about 1,500 nm, about 1 to about 1,000 nm, in a sub-embodiment about 50 to about 600 nm, in a sub-embodiment about 50 to about 400 nm, in a sub-embodiment about 50 to about 250 nm, and in a sub-embodiment about 50 to about 150 nm. Unless indicated otherwise, all sizes referred to herein are the average sizes (diameters) of the fully formed nanoparticle, as measured by dynamic light scattering on a Malvern Zetasizer. The nanoparticle sample is diluted in phosphate buffered saline (PBS) so that the count rate is approximately 200-400 kcts. The data is presented as a weighted average of the intensity measure. Unless indicated otherwise, all particle size measurements referred to in Tables 4 and 5 are the Z-average particle size of the fully formed nanoparticle, as measured by dynamic light scattering on a Malvern Zetasizer. The nanoparticle sample was diluted in phosphate buffered saline (PBS) so that the count rate is approximately 200-400 kcts.

[2] = Polydispersity index (PDI) of lipid nanoparticle (dynamic light scattering); assay type: physicochemical
Procedure: Unless indicated otherwise, all PDIs referred to herein are the PDI of the fully formed nanoparticle, as measured by dynamic light scattering on a Malvern Zetasizer. The nanoparticle sample was diluted in phosphate buffered saline (PBS) so that the count rate was approximately 200-400 kcts. The data is presented in Tables 4 and 5 as a weighted average of the intensity measure.

[3] = FVII siRNA LNP, Chol/DSPC/S010, molar ratio 45/44/9/2, Z-average
[4] = FVII siRNA LNP, Chol/DSPC/S010, molar ratio 45/44/9/2
[5] = FVII siRNA LNP, Chol/DSPC/PEG-DMG, molar ratio 45/44/9/2, Z-average
[6] = FVII siRNA LNP, Chol/DSPC/PEG-DMG, molar ratio 45/44/9/2
[7] = PLK1-424 siRNA LNP, Chol/DSPC/S010 45/44/9/2

SMILES: CCCCCCCC(=O)OCCCCCCCCCCOc1cc(CN(C)C)cc(OCCCCCCCCCCOC(=O)CCCCCCC)c1OCCCCCCCCCCOC(=O)CCCCCCC [Ex. 99, ((5-((dimethylamino)methyl)benzene-1,2,3-triyl)tris(oxy))tris(decane-10,1-diyl)trioctanoate]
- Size (nm) [1, 3]: 96.61 nm
- PDI [2, 4]: 0.061

SMILES: CCCCCCCC(=O)OCCCCCCCCCCOc1cc(CN(CC)CC)cc(OCCCCCCCCCCOC(=O)CCCCCCC)c1OCCCCCCCCCCOC(=O)CCCCCCC [Ex. 100, ((5-((diethylamino)methyl)benzene-1,2,3-triyl)tris(oxy))tris(decane-10,1-diyl)trioctanoate]
- Size (nm) [1, 5]: 106.4 nm
- Size (nm) [1, 3]: 105.9 nm
- PDI [2, 6]: 0.07
- PDI [2, 4]: 0.121

SMILES: CCCCCCCCCOC(=O)OCCCCCC(=O)OCc1cc(COC(=O)CCCCCOC(=O)OCCCCCCCCC)cc(CN(C)C)c1 [Ex. 106, (5-((dimethylamino)methyl)-1,3-phenylene)bis(methylene)bis(6-(((nonyloxy)carbonyl)oxy)hexanoate)]
- Size (nm) [1, 3]: 149.3 nm
- PDI [2, 4]: 0.083

SMILES: CCCCCCCC(=O)OCC(CCCCOc1cc(CN(C)C)cc(OCCCCC(COC(=O)CCCCCCC)COC(=O)CCCCCCC)c1)COC(=O)CCCCCCC [Ex. 110, (((5-((dimethylamino)methyl)-1,3-phenylene)bis(oxy))bis(butane-4,1-diyl))bis(propane-3,2,1-triyl)tetraoctanoate]
- Size (nm) [1, 3]: 183.3 nm
- PDI [2, 4]: 0.071

SMILES: CCCCCCCC(=O)OCC(COC(=O)CCCCCCC)COc1cc(CN(C)C)cc(OCC(COC(=O)CCCCCCC)COC(=O)CCCCCCC)c1 [Ex. 111, (((5-((dimethylamino)methyl)-1,3-phenylene)bis(oxy))bis(methylene))bis(propane-3,2,1-triyl)tetraoctanoate]
- Size (nm) [1, 3]: 161.9 nm
- PDI [2, 4]: 0.048

SMILES: CCCCC/C=C\C/C=C\CCCCCCCC(=O)OCCCCOc1cc(CN2CCCC2)cc(OCCCCOC(=O)CCCCCCC/C=C\C/C=C\CCCCC)c1 [Ex. 112, (9Z,9′Z,12Z,12′Z)-((5-(pyrrolidin-1-ylmethyl)-1,3-phenylene)bis(oxy))bis(butane-4,1-diyl)bis(octadeca-9,12-dienoate)]
- Size (nm) [1, 5]: 96.1 nm
- PDI [2, 6]: 0.1

SMILES: CCCCCCC(CCCCCC)CCCCCC(=O)OCCCCOc1cc(CN(C)C)cc(OCCCCOC(=O)CCCCCC(CCCCCC)CCCCCC)c1 [Ex. 113, ((5-((dimethylamino)methyl)-1,3-phenylene)bis(oxy))bis(butane-4,1-diyl)bis(7-hexyltridecanoate)]
- Size (nm) [1, 5]: 87.5 nm
- PDI [2, 6]: 0.132

SMILES: CCCCCC(CCCCC)CCCCCCCC(=O)OCCCCOc1cc(CN(C)C)cc(OCCCCOC(=O)CCCCCCCC(CCCCC)CCCCC)c1 [Ex. 114, ((5-((dimethylamino)methyl)-1,3-phenylene)bis(oxy))bis(butane-4,1-diyl)bis(9-pentyltetradecanoate)]
- Size (nm) [1, 5]: 94.9 nm
- PDI [2, 6]: 0.1

SMILES: CCCCCCCC(CCCCCCC)CCCC(=O)OCCCCOc1cc(CN(C)C)cc(OCCCCOC(=O)CCCC(CCCCCCC)CCCCCCC)c1 [Ex. 115, ((5-((dimethylamino)methyl)-1,3-phenylene)bis(oxy))bis(butane-4,1-diyl)bis(5-heptyldodecanoate)]
- Size (nm) [1, 5]: 89.0 nm
- PDI [2, 6]: 0.1

SMILES: CCCCCCCCC(CCCCCCCC)CC(=O)OCCCCOc1cc(CN(C)C)cc(OCCCCOC(=O)CC(CCCCCCCC)CCCCCCCC)c1 [Ex. 116, ((5-((dimethylamino)methyl)-1,3-phenylene)bis(oxy))bis(butane-4,1-diyl)bis(3-octylundecanoate)]
- Size (nm) [1, 5]: 87.5 nm
- PDI [2, 6]: 0.094

SMILES: CCCCCCC(CCCCCC)CCCCCC(=O)OCc1cc(COC(=O)CCCCCC(CCCCCC)CCCCCC)cc(CN(C)C)c1 [Ex. 118, (5-((dimethylamino)methyl)-1,3-phenylene)bis(methylene)bis(7-hexyltridecanoate)]
- Size (nm) [1, 5]: 84.8 nm
- PDI [2, 6]: 0.058

SMILES: CCCCCC(CCCCC)CCCCCCCC(=O)OCc1cc(COC(=O)CCCCCCCC(CCCCC)CCCCC)cc(CN(C)C)c1 [Ex. 119, (5-((dimethylamino)methyl)-1,3-phenylene)bis(methylene)bis(9-pentyltetradecanoate)]
- Size (nm) [1, 5]: 85.3 nm
- PDI [2, 6]: 0.073

SMILES: CCCCC/C=C\C/C=C\CCCCCCCC(=O)OCCCCOc1cc(CCCN2CCCCC2)cc(OCCCCOC(=O)CCCCCCC/C=C\C/C=C\CCCCC)c1 [Ex. 120, (9Z,9′Z,12Z,12′Z)-((5-(3-(piperidin-1-yl)propyl)-1,3-phenylene)bis(oxy))bis(butane-4,1-diyl)bis(octadeca-9,12-dienoate)]
- Size (nm) [1, 5]: 96.5 nm
- PDI [2, 6]: 0.056

SMILES: CCCCCCCC(=O)OCC(COC(=O)CCCCCCC)OCCCCOc1cc(CN(C)C)cc(OCCCCOC(COC(=O)CCCCCCC)COC(=O)CCCCCCC)c1 [Ex. 125, ((((5-((dimethylamino)methyl)-1,3-phenylene)bis(oxy))bis(butane-4,1-diyl))bis(oxy))bis(propane-3,2,1-triyl)tetraoctanoate]
- Size (nm) [1, 5]: 194.7 nm
- PDI [2, 6]: 0.086

SMILES: CCCCC/C=C\C/C=C\CCCCCCCC(=O)OCc1cc(COC(=O)CCCCCCC/C=C\C/C=C\CCCCC)cc(CN(C)C)c1 [Example 33, (9Z,9′Z,12Z,12′Z)-(5-((dimethylamino)methyl)-1,3-phenylene)bis(methylene)bis(octadeca-9,12-dienoate)]
- Size (nm) [1, 5]: 107.8 nm
- Size (nm) [1, 3]: 79.15 nm
- PDI [2, 6]: 0.06
- PDI [2, 4]: 0.042

SMILES: CCCCCCCCCCCCC(=O)OCc1cc(COC(=O)CCCCCCCCCCCC)cc(CN(C)C)c1 [Example 34, (5-((dimethylamino)methyl)-1,3-phenylene)bis(methylene)ditridecanoate]
- Size (nm) [1, 5]: 126.0 nm
- Size (nm) [1, 3]: 113.8 nm
- PDI [2, 6]: 0.06
- PDI [2, 4]: 0.036

SMILES: CCCCC/C=C\C/C=C\CCCCCCCC(=O)OCCOc1cc(CN(C)C)cc(OCCOC(=O)CCCCCCC/C=C\C/C=C\CCCCC)c1 [Example 40, (9Z,9′Z, 12Z, 12′Z)-((5-((dimethylamino)methyl)-1,3-phenylene)bis(oxy))bis(ethane-2,1-diyl)bis(octadeca-9,12-dienoate)]
- Size (nm) [1, 5]: 110.9 nm
- Size (nm) [1, 3]: 94.28 nm
- PDI [2, 6]: 0.02
- PDI [2, 4]: 0.062

SMILES: CCCCCC(=O)OCCCCCCCCOc1cc(CN(C)C)cc(OCCCCCCCCOC(=O)CCCCC)c1 [Example 41, ((5-((dimethylamino)methyl)-1,3-phenylene)bis(oxy))bis(octane-8,1-diyl)dihexanoate]
- Size (nm) [1, 3]: 170.7 nm
- PDI [2, 4]: 0.119

SMILES: CCCCCCCC(=O)OCCCCCCCCOc1cc(CN(C)C)cc(OCCCCCCCCOC(=O)CCCCCCC)c1 [Example 42, ((5-((dimethylamino)methyl)-1,3-phenylene)bis(oxy))bis(octane-8,1-diyl)dioctanoate]
- Size (nm) [1, 3]: 120 nm
- Size (nm) [1, 7]: 181.1 nm
- PDI [2, 4]: 0.084
- PDI [2, 7]: 0.06

SMILES: CCCCCC(=O)OCCCCCCCCCCOc1cc(CN(C)C)cc(OCCCCCCCCCCOC(=O)CCCCC)c1 [Example 44, ((5-((dimethylamino)methyl)-1,3-phenylene)bis(oxy))bis(decane-10,1-diyl)dihexanoate]
- Size (nm) [1, 3]: 172.9 nm
- PDI [2, 4]: 0.077

SMILES: CCCCC/C=C\C/C=C\CCCCCCCC(=O)OCCCCCCOc1cc(CN(C)C)cc(OCCCCCCOC(=O)CCCCCCC/C=C\C/C=C\CCCCC)c1 [Example 45, (9Z,9′Z,12Z,12′Z)-((5-((dimethylamino)methyl)-1,3-phenylene)bis(oxy))bis(hexane-6,1-diyl)bis(octadeca-9,12-dienoate)]
- Size (nm) [1, 3]: 102.8 nm
- PDI [2, 4]: 0.072

SMILES: CCCCC/C=C\C/C=C\CCCCCCCC(=O)OCCCCCCCCOc1cc(CN(C)C)cc(OCCCCCCCCOC(=O)CCCCCCC/C=C\C/C=C\CCCCC)c1 [Example 46, (9Z,9′Z,12Z,12′Z)-((5-((dimethylamino)methyl)-1,3-phenylene)bis(oxy))bis(octane-8,1-diyl)bis(octadeca-9,12-dienoate)]
- Size (nm) [1, 3]: 102.4 nm
- PDI [2, 4]: 0.135

SMILES: CCCCCCCCCC(=O)OCCCCCCOc1cc(CN(C)C)cc(OCCCCCCOC(=O)CCCCCCCCC)c1 [Example 47, ((5-((dimethylamino)methyl)-1,3-phenylene)bis(oxy))bis(hexane-6,1-diyl)bis(decanoate)]
- Size (nm) [1, 5]: 109.3 nm
- Size (nm) [1, 3]: 125.9 nm
- PDI [2, 6]: 0.06
- PDI [2, 4]: 0.035

SMILES: CCCCCCCC(=O)OCCCCCCOc1cc(CN(C)C)cc(OCCCCCCOC(=O)CCCCCCC)c1 [Example 48, ((5-((dimethylamino)methyl)-1,3-phenylene)bis(oxy))bis(hexane-6,1-diyl)dioctanoate]
- Size (nm) [1, 3]: 152.3 nm
- PDI [2, 4]: 0.105

SMILES: CCCCC/C=C\C/C=C\CCCCCCCC(=O)OCCCCOc1cc(CN2CC(O)C2)cc(OCCCCOC(=O)CCCCCCC/C=C\C/C=C\CCCCC)c1 [Example 49, (9Z,9′Z,12Z,12′Z)-((5-((3-hydroxyazetidin-1-yl)methyl)-1,3-phenylene)bis(oxy))bis(butane-4,1-diyl)bis(octadeca-9,12-dienoate)]
- Size (nm) [1, 3]: 111.1 nm
- PDI [2, 4]: 0.046
